According to PubChem BioAssay AID1476 (National Center for Advancing Translational Sciences (NCATS), 2009):
Out of some 200,000 compounds screened, about 4,500 (2.2%) were called active. The shares of active, inactive and inconclusive entries below differ from those in the screen. The call rests on the fitted dose curve; in most records, active means well fitted inhibition curve with a large enough effect; inconclusive means small, poorly fitted or top-dose-only effect, or effect the other way; inactive means flat fitted curve, though single readings scatter. A potency beside an inconclusive call is a rough fit, not a confirmed value.

target: Cruzipain (Trypanosoma cruzi) (UniProt P25779); assay: qHTS Assay for Promiscuous and Specific Inhibitors of Cruzain (without detergent); details: purified cruzain, Z-FR-AMC fluorescence, no detergent; further: nearly all actives have a fitted effect of over 40% in size;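 on max response, negative = inhibition: plate controls were enzyme without inhibitor for no effect and buffer without enzyme for full effect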
Outline: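 Purified cruzain at 1.5 nM, pre-incubated 15 min with compound at room temperature in 100 mM sodium acetate pH 5.5, 5 mM DTT, 0.00005% Triton X-100. Reaction started with 2 uM Z-FR-AMC; AMC fluorescence increase over 60 s gives rate.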
Potency means the concentration at half of the fitted maximal effect; tags describe the fitted curve by direction and shape.

UniProt P25779, sequence (P25779 whole entry, looked up): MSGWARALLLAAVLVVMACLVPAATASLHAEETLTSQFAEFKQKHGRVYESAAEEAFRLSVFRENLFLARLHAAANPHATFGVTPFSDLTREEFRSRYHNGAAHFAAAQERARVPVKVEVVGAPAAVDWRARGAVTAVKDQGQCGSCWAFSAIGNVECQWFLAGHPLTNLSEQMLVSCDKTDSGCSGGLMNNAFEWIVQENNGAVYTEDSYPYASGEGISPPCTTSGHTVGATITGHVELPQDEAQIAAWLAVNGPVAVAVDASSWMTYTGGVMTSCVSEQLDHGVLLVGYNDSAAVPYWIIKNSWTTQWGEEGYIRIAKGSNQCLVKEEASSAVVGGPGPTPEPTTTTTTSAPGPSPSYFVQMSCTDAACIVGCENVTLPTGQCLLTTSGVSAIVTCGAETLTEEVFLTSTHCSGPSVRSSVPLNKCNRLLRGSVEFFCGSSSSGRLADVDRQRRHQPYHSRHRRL

SMILES	Potency	max response, negative = inhibition
COc1ccc(NC(=O)C2CCN(S(=O)(=O)c3c(C)noc3/C=C/c3cccs3)CC2)cc1Cl	active: 10 µM	
Cc1ccc2c(CC(=O)OCC(=O)Nc3ccc(Cl)cn3)coc2c1	inconclusive: 15.8 µM [inhibitor, partial curve]	
CCc1c(C)sc2c1CCN(Cc1ccccc1F)C2c1ccccc1 (centres undefined)		inactive: -2.66%
Cc1c(CNC(=O)c2cnn3c2NC(c2ccc(Br)cc2)CC3C(F)(F)F)cnn1C (centres undefined)	inconclusive: 31.6 µM [activator, partial curve]	
CN1C(=O)C2(C(C#N)=C(N)N(c3cc(Cl)cc(Cl)c3)C3=C2C(=O)CC(C)(C)C3)c2ccccc21 (centres undefined)	inconclusive: 25.1 µM [activator, partial curve]	
C/C(=N/NC(=O)Cc1cc(=O)[nH][nH]1)c1ccc([N+](=O)[O-])cc1		inactive: -3.03%
COc1ccc2nc3c(cc2c1)c(NC(=O)C1CCCO1)nn3CC(C)C (centres undefined)	inconclusive: 39.8 µM [activator, single point]	
c1ccc(-c2cc3n(c2)CCc2ccccc2-3)cc1	inconclusive: 31.6 µM [inhibitor, single point]	
CCOC(=O)c1c(-c2ccccc2)csc1NC(=O)c1ccc(N2C(=O)CCC2=O)cc1	inconclusive: 12.6 µM [activator, partial curve]	
CN(C(=O)Cc1ccc(Cl)c(Cl)c1)[C@H](CN1CCCC1)c1ccccc1		inactive: 11.6%
CCOc1cc(NC(=O)c2cnccn2)c(OCC)cc1NC(=O)c1ccc(OC)cc1	inconclusive: 6.31 µM [activator, single point]	
COc1ccc(NC(=O)C2=C(C)Nc3nc(SCc4ccc(Cl)cc4)nn3C2c2cccc(OC)c2OC)cc1 (centres undefined)		inactive: 7.78%
Cc1ccc(NC(=O)Cc2nc(CCl)cs2)cc1	inconclusive: 31.6 µM [inhibitor, single point]	
COc1cccc(CC(=O)Nc2nc(-c3cccnc3)cs2)c1	inconclusive: 39.8 µM [inhibitor, single point]	
Cc1cccc(-n2c(=O)c3ccccc3n(Cc3ccc(F)cc3)c2=O)c1		inactive: -6.1%
CCCNC(=O)CCn1c(-c2ccc(C)cc2)cc(C(=O)OCC)c1C	inconclusive: 25.1 µM [activator, single point]	
CCOC(=O)c1c(-c2cccs2)csc1NC(=O)CN1CCOCC1	inconclusive: 31.6 µM [activator, single point]	
Cc1cc(Cl)ccc1NC(=O)CCC(=O)O		inactive: -5.6%
CCCCC1CCC(C(=O)NCc2ccc3c(c2)OCO3)CC1 (centres undefined)	inconclusive: 31.6 µM [inhibitor, single point]	
CCOC(=O)c1sc(NC(=O)c2c(-c3ccccc3)c(-c3ccccc3)nn(C)c2=O)nc1C	inconclusive: 25.1 µM [activator, single point]	
c1ccc(C2=Nc3ccccc3OC2)cc1		inactive: -17.9%
NC(=O)CSc1nnc(-c2cc(-c3cccs3)nc3ccccc23)o1		inactive: -18%

SMILES	Potency	max response, negative = inhibition
COc1ccc(N(C)S(=O)(=O)c2cccc(C(=O)Nc3ccc(-n4cnnn4)cc3)c2)cc1	inconclusive: 31.6 µM [inhibitor, single point]	
COc1ccc(NC(=O)/C=C/c2ccc(F)cc2)cn1	inconclusive: 15.8 µM [inhibitor, partial curve]	
Cc1ccc(-c2nc(C)c(CCNC(=O)c3ccccc3Br)s2)cc1		inactive: 11.2%
O=C(NC1=NCCS1)C1CC2CCC1C2 (centres undefined)	inconclusive: 20 µM [inhibitor, partial curve, poor fit]	
COc1cc(OC)c(N(C)C(=O)Nc2cn(CC(C)C)c(=O)c3ccccc23)cc1Cl	inconclusive: 31.6 µM [activator, single point]	
Cc1ccc(-c2csc(NC(=O)C3CC=CCC3C(=O)O)c2C(=O)OC(C)C)cc1 (centres undefined)	inconclusive: 39.8 µM [activator, single point]	
OCCN(CCO)c1ncnc2c1sc1nc(N3CCOCC3)c3c(c12)CCCC3	inconclusive: 31.6 µM [activator, partial curve]	
FC(F)(F)c1ccc(N2CCN(c3cc(-c4ccccc4)nc4ncnn34)CC2)nc1	inconclusive: 1.58 µM [activator, single point]	
O=C1N/C(=C/c2cccn2-c2ccccc2)C(=O)N1c1cccc(Cl)c1	active: 10 µM	
CC(=O)O[C@H]1C(=O)[C@@]2(C)[C@H]([C@H](OC(=O)c3ccccc3)[C@]3(O)C[C@H](OC(=O)[C@H](O)[C@@H](NC(=O)c4ccccc4)c4ccccc4)C(C)=C1C3(C)C)[C@]1(OC(C)=O)CO[C@@H]1C[C@@H]2O	inconclusive: 12.6 µM [activator, partial curve]	
COc1cccc(C(C(=O)NC2CCCCC2)N(C(=O)c2ccco2)c2ccc(-n3cnnn3)c(C)c2)c1 (centres undefined)	inconclusive: 31.6 µM [activator, single point]	
COc1ccc(C)cc1N(C(=O)COc1ccccc1)c1nc2ccccc2s1	inconclusive: 39.8 µM [inhibitor, single point]	
COc1ccc(C(C[N+](=O)[O-])c2c(-c3ccccc3)cc3ccccn23)cc1 (centres undefined)	inconclusive: 31.6 µM [inhibitor, single point]	
O=C1C=CC(=O)c2c(O)cccc21	active: 7.94 µM	
COc1ccc(NC(=O)CNC(=O)Cn2c(C)cc3ccccc3c2=O)c(OC)c1		inactive: -4.03%
Cc1ccc(S(=O)(=O)N(CC(=O)N2CCc3ccccc3C2)c2cccc(Cl)c2)cc1	inconclusive: 39.8 µM [inhibitor, single point]	
O=C(Nc1ccc(Cl)cn1)Nc1ccccc1F	inconclusive: 31.6 µM [inhibitor, single point]	
CCOC(=O)C1=C(C)NC(=O)N[C@@H]1c1coc2cc(C)cc(C)c2c1=O		inactive: -11.7%
COc1ccc(C2NCCc3c2[nH]c2ccccc32)cc1CSc1nc2ccccc2s1 (centres undefined)	active: 25.1 µM	
COc1cc2c(cc1NCc1ccc3c(c1)OCO3)oc1ccccc12	inconclusive: 31.6 µM [inhibitor, single point]	
COc1ccc(OC)c(S(=O)(=O)N(C)CC(=O)N2CCN(c3ccccc3F)CC2)c1	inconclusive: 39.8 µM [activator, single point]	
CCOc1ccc(/C=C(\C#N)C(=O)c2c(C)[nH]c3ccccc23)cc1OC	inconclusive: 31.6 µM [activator, single point]	

SMILES	Potency	max response, negative = inhibition
C=CCSc1nc(N)c2c(C)c(C)sc2n1	inconclusive: 39.8 µM [inhibitor, single point]	
COc1ccc(NC(=O)Cn2c(=O)oc3cc(S(=O)(=O)N4CCCCCC4)ccc32)cc1OC	inconclusive: 39.8 µM [activator, single point]	
COC(=O)/C=C/C(C)=C/C=C/C(C)=C/C=C/C=C(C)/C=C/C=C(C)/C=C/C(=O)O	inconclusive: 31.6 µM [activator, single point]	
Cc1ccc2onc(CC(=O)N3CCN(c4cccc(Cl)c4)CC3)c2c1	inconclusive: 15.8 µM [inhibitor, partial curve]	
COc1ccc(Oc2ncc3nc(-c4cn(C)c5ccccc45)c(=O)n(CCC#N)c3n2)cc1		inactive: -6.4%
FC(F)(F)c1cc(-c2ccccc2)nc2cc(-c3ccccc3)nn12		inactive: -10.7%
CCOC(=O)C1=C(CSc2nc3ccccc3s2)NC(=O)NC1c1ccc(OC)cc1 (centres undefined)	active: 25.1 µM	
CCc1nnc(NC(=O)CSc2nc3c([nH]c4ccccc43)c(=O)n2-c2ccc(Cl)cc2)s1		inactive: -2.12%
CC(/C=C1\SC(=S)N(NC(=O)c2ccccc2C)C1=O)=C\c1ccccc1	inconclusive: 25.1 µM [inhibitor, single point]	
C=CCN(c1ccccc1)S(=O)(=O)c1ccc(Cl)c(C(=O)OCC(=O)c2[nH]c(C)c(C(C)=O)c2C)c1	inconclusive: 31.6 µM [inhibitor, single point]	
CS(=O)(=O)N(CC(=O)NC1CCCCC1)Cc1ccc(Cl)cc1	inconclusive: 31.6 µM [activator, single point]	
CCOc1ccc(NC(=O)c2ccc(Br)o2)c([N+](=O)[O-])c1	inconclusive: 31.6 µM [inhibitor, single point]	
Cc1cc(C(=O)COc2ccc3ccc(=O)oc3c2)c(C)n1Cc1cccs1	inconclusive: 25.1 µM [inhibitor, single point]	
O=c1oc2ccccc2cc1-c1cn2cc(Cc3cc(Cl)ccc3Cl)sc2n1		inactive: -7.43%
CCC1(c2ccc(F)cc2)NC(=O)N(CC(=O)Nc2ccc(-c3nc4ccc(C)cc4s3)cc2)C1=O (centres undefined)	active: 12.6 µM	
COc1ccc(N2CCN(Cc3nc4c(c(=O)[nH]c(=O)n4C)n3Cc3ccccc3C)CC2)cc1		inactive: 8.39%
Cc1ccc(CSc2nnc(SCC(=O)N/N=C/C=C/c3ccco3)s2)cc1	inconclusive: 39.8 µM [inhibitor, single point]	
O=C(CSc1ncccc1C(=O)Oc1ccccc1Cl)Nc1ccc(C(F)(F)F)cc1Cl		inactive: -7.23%
COC(=O)c1ccc(NC(=O)C(=O)NCCc2csc(-c3ccc(F)cc3)n2)cc1	inconclusive: 0.631 µM [activator, partial curve, poor fit]	
CCCCCn1c(SCC(=O)OCC)nc2cc(C(=O)N3CCC(C(N)=O)CC3)ccc2c1=O	inconclusive: 31.6 µM [activator, single point]	
